# Source: the BET-seq Pho4 binding data (Le et al. 2018)
# The other results are listed elsewhere or left out. The energies were worked out here from pooled read counts, against the library average; single values are noisy.
# Target: T1, Pho4 (S. cerevisiae) (UniProt P07270)
# T1 sequence: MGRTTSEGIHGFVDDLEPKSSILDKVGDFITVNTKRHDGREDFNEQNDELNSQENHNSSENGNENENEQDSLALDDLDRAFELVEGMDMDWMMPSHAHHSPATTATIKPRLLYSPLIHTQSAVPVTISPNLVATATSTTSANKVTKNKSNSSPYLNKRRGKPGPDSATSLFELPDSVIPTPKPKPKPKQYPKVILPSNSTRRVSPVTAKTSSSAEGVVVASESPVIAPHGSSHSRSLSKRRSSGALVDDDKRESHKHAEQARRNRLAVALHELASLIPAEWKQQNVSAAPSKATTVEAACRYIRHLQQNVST
# Assay: relative binding free energy (BET-seq); higher = weaker binding
# Details: reference: library average
row,Sequence,relative binding free energy [kcal/mol]
1,GGGCGCACGTGAGAGC,0.24
2,GATAACACGTGTGTTA,-0.04
3,GTTTGCACGTGTGATA,0.22
4,TAGGGCACGTGAGGGC,0.17
5,GATTGCACGTGGGGGA,-0.01
6,AGGGACACGTGTACGG,0.19
7,CTGGTCACGTGGAATT,0.14
8,GCGGACACGTGAGTGG,0.19
9,TGAATCACGTGTTGTG,0.05
10,TGGTACACGTGTTTTC,0.01
11,TTGTTCACGTGAACTG,0.34
12,CGTGTCACGTGTATTG,0.15
13,AATGGCACGTGTTTAG,-0.19
14,AGAGTCACGTGTGTCA,0.23
15,TCTTACACGTGAGGAA,0.71
16,TAGGCCACGTGGTGTC,-0.13
17,CTTGGCACGTGGGGTA,-0.23
18,TGTTTCACGTGCCTGT,0.2
19,CGTGTCACGTGATAAT,0.27
20,AATGACACGTGTTAGG,0.02
21,AGGATCACGTGGGGGT,-0.01
22,TTCGTCACGTGGCTAG,0.07
23,TTTAGCACGTGGATGA,0.07

row,Sequence,relative binding free energy [kcal/mol]
1,TTGCGCACGTGTGATG,0.07
2,TTGGTCACGTGGCTGG,0.1
3,CGGGGCACGTGTTTTT,0.02
4,CGTTTCACGTGAATAT,0.28
5,ACAGGCACGTGGTGAT,-0.2
6,ATGGTCACGTGGGAGC,-0.07
7,TGACTCACGTGGGGTA,0.18
8,TAAGGCACGTGGAAGG,-0.08
9,TTAGTCACGTGCGTGT,0.03
10,GGCCGCACGTGTGGGT,0
11,GATAACACGTGAGTAT,0.5
12,ATAATCACGTGTGTGG,0.2
13,GCTGTCACGTGAATGG,0.34
14,TGGTACACGTGGTTCA,0.04
15,GGGTGCACGTGCGTGC,-0.17
16,GGGTTCACGTGGTATG,0.31
17,CGGGGCACGTGTGGGC,-0.09
18,TTATGCACGTGGTGGC,-0.09
19,GGCGTCACGTGGACGT,0.18
20,TCGCGCACGTGTGAGT,0.06
21,CATGGCACGTGGCTGT,-0.24
22,ATAGTCACGTGTGTAG,0.06
23,GTAGGCACGTGGTATA,-0.06

row,Sequence,relative binding free energy [kcal/mol]
1,AATTGCACGTGTTTAG,-0.02
2,GACATCACGTGCGGGG,0.31
3,TTATCCACGTGTTGAG,0.09
4,TGTTTCACGTGAGTTA,0.37
5,TTTTACACGTGAGCTT,0.24
6,ATAGTCACGTGGAGGT,0.09
7,CTATTCACGTGGGGGG,-0.01
8,AGATCCACGTGGGTGG,-0.08
9,GAGCGCACGTGTATGT,0
10,AAAATCACGTGTTAGG,0.14
11,TATTGCACGTGATAGG,-0.06
12,ATGGTCACGTGTAGTG,0.15
13,CGGTCCACGTGGGTAG,-0.13
14,CTGGCCACGTGGGGGT,-0.37
15,GGGATCACGTGGTTAC,0.27
16,GTTCGCACGTGAGAGG,0.16
17,TTAATCACGTGGTTGC,0.15
18,AGAGACACGTGGGGCG,-0.07
19,TTTAGCACGTGGTTGA,-0.13
20,CTAGTCACGTGTGGCG,0.12
21,TAGCGCACGTGATGGG,0.06
22,GCTGGCACGTGCTTGG,-0.24
23,AGGGGCACGTGGACCG,-0.25

row,Sequence,relative binding free energy [kcal/mol]
1,TGGGACACGTGGCCGG,-0.11
2,CATTGCACGTGAGGTG,0.23
3,GATATCACGTGGTCTT,0.13
4,TGTACCACGTGTTGTG,-0.11
5,GAGATCACGTGGAGTG,0.19
6,TAGCTCACGTGTAGTT,0.21
7,TTATACACGTGTAGGA,0.02
8,GAGGGCACGTGAGTAG,0.19
9,TGCGTCACGTGTGGTA,0.11
10,GGCTTCACGTGGGTGA,0.14
11,TCTGGCACGTGGGGCG,-0.2
12,TTGCTCACGTGTAAGT,0.3
13,TGTGGCACGTGTGGGT,-0.01
14,TAGTGCACGTGAGTCG,0.24
15,TGATGCACGTGAGTCA,0.17
16,GTAATCACGTGTGATT,0.12
17,TTTGACACGTGGAATA,0.04
18,ATAGTCACGTGGTGCC,0.17
19,TGGGGCACGTGTCGGG,-0.14
20,ATTTGCACGTGGCTGT,-0.08
21,TATTTCACGTGTAATC,0.35
22,TTAAGCACGTGGGTGG,-0.19
23,TTTACCACGTGTTAAT,-0.04

row,Sequence,relative binding free energy [kcal/mol]
1,AATCTCACGTGTTGTT,0.16
2,GTGGTCACGTGGTCAC,0.11
3,GGAGTCACGTGCGGGG,0.05
4,GGTATCACGTGTACTT,0.16
5,TTTTACACGTGATAAT,0.36
6,TGCGTCACGTGAGAGA,0.32
7,TATTCCACGTGTTTAA,0.05
8,TTATGCACGTGTGTAA,0
9,TGTCACACGTGGCTGG,-0.08
10,ATGTACACGTGCTTTT,-0.15
11,AGGGTCACGTGAGTGT,0.3
12,CGTTACACGTGGTGGC,0.12
13,TGGTTCACGTGGGCGA,0.1
14,CGGGGCACGTGCGTCG,-0.24
15,TGTGACACGTGCTTGA,-0.04
16,GGTGGCACGTGGCATC,-0.08
17,TTTTACACGTGACGTT,0.25
18,GAAGGCACGTGGGTCG,-0.15
19,AGGGTCACGTGAGTAC,0.15
20,GTGTTCACGTGGCTTG,0.2
21,GATAGCACGTGCCGGG,0
22,GTTAGCACGTGAACGT,0.3
23,AGGAACACGTGGTGTC,-0.06
